The source gives no read counts; variants with many changes may rest on few reads.
B1: CPEB3 Ribozyme (parent)
chain: UAACAGGGGGCCACAGCAGAAGCGUUCACGUCGCAGCCCCUGUCAGAUUCUGGUGAAUCUGCGAAUUCUGCUGUAUAUCUC

Variants of: B1
Assay: self-cleavage, relative activity (ratio to wild type); higher = more cleavage; in vitro, sequencing
Outline: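 Relative activity was defined as the cleaved/total read fraction for a variant divided by the same fraction for the unmutated ribozyme. CPEB3 self-cleaving ribozyme libraries were made by rounds of error-prone PCR, barcoded, and transcribed in vitro with T7 RNA polymerase for 5 hours at 37°C, and cleavage ran through transcription plus a 15 min DNase I step before EDTA. Illumina sequencing of template-switched reverse transcripts gave the reads, and DNA sequencing mapped the barcodes. Averages come from three batches, using variants with at least 5 reads.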
In the case of A3G A18C A21G, the self-cleavage is reported as 0.19.
Variant A3G C12A C38G A64U has a self-cleavage of 0.33.
A3G A13G U31A showed a self-cleavage of 0.74.
With A3G C11U U25C the self-cleavage was 0.69.
For A3G A13G U25A A56U A64G U66C U72A, the self-cleavage was 0.06.
In the case of A3G C17U U25A, the self-cleavage is reported as 0.45.
A3G A75G A77G gave a self-cleavage of 0.57.
A3C A21G U26C gave a self-cleavage of 0.61.
A3G A18G A57U gave a self-cleavage of 0.72.
Work on A3G A5G A18U U25A U72G yielded a self-cleavage of 0.07.
With A3G A20G G30U U31C G52A A64G the self-cleavage was 0.18.
Work on A3G A18U U76A yielded a self-cleavage of 0.09.
Work on A3G C11U U58C yielded a self-cleavage of 0.1.
For A3G A15U C29U A64U, the self-cleavage was 0.07.
For A3G A45U U54C U72A, the self-cleavage was 0.39.
For A3G A28U A64C, the self-cleavage was 0.44.
A3G A5G U26C A77U showed a self-cleavage of 0.67.
A3G G8C A21G U26C gave a self-cleavage of 0.03.
With A3G A5G G30A U69C the self-cleavage was 0.4.
A3G A75G U78A gave a self-cleavage of 0.92.
For A3G A5G U76C U78C, the self-cleavage was 0.62.
In the case of A3G A15U A18C C23U U49C G61U, the self-cleavage is reported as 0.13.
A3G G6A A28G U67C showed a self-cleavage of 0.05.
A3G C37A U69A showed a self-cleavage of 0.28.
A3G A20G A45G U58C U60C G63C U67C showed a self-cleavage of 0.47.
In the case of A3C A56G G63U A77G, the self-cleavage is reported as 1.15.
Variant A3G A15G U49C U80C has a self-cleavage of 0.3.
A3G A35U A47G A57U A64U showed a self-cleavage of 0.12.
For A3G A5U U26C U43C U51A U66C, the self-cleavage was 0.42.
Variant A3G A20G U31C C32U C37U U58A U60C has a self-cleavage of 0.1.
Work on A3G A5G U41C U80C yielded a self-cleavage of 0.28.
With A3G C12U A56G U58C G61A U67C U74C the self-cleavage was 0.49.
Work on A3G G8U G61C U74C yielded a self-cleavage of 0.09.
A3G G8U A21G C23A A28G U41C U69A showed a self-cleavage of 0.06.
A3G A56G U80A gave a self-cleavage of 1.13.
In the case of A3G A13U U58C U72C, the self-cleavage is reported as 0.79.
Variant A3G G8A U76C has a self-cleavage of 0.1.
For A3G A13U A35U U69C U80C, the self-cleavage was 0.31.
For A3G C11U U25C A35U G73A, the self-cleavage was 0.48.
With A3C G9C G61C U78C the self-cleavage was 0.14.
With A3G C50A A56G the self-cleavage was 0.51.
Work on A3G C32U C40G U60G yielded a self-cleavage of 0.13.
Work on A3G C29U A47U A75G yielded a self-cleavage of 0.22.
Variant A3G G9A A20G C29A A45C A56G has a self-cleavage of 0.08.
A3G C17G U69A U72A gave a self-cleavage of 0.13.
For A3C A5C U26A U76C, the self-cleavage was 0.62.
With A3C G6A U41C U49A the self-cleavage was 0.52.
With A3G A45C U48C A64G the self-cleavage was 0.16.
In the case of A3G A13G U49C U60A U72A, the self-cleavage is reported as 0.35.
With A3G A18G A28G U76C the self-cleavage was 0.51.
With A3G A20U U31C G36A U43A U51A A65U the self-cleavage was 0.18.
A3G A18G U26A U41C A57G showed a self-cleavage of 0.29.
A3G C17U A18G A28U showed a self-cleavage of 0.16.
Variant A3C A28U C62G U80C has a self-cleavage of 0.17.
With A3G C23A U72A U80C the self-cleavage was 0.17.
For A3C A21G U41C U67C, the self-cleavage was 0.58.
A3G A13G C40U gave a self-cleavage of 0.68.
Work on A3G A13U U54C C71U U72C yielded a self-cleavage of 0.92.
Work on A3C U43C A56G C62U yielded a self-cleavage of 0.39.
A3G A64G U69C U80A gave a self-cleavage of 0.34.
With A3G G6C A77U the self-cleavage was 0.23.
A3G A18C U60C A64U gave a self-cleavage of 0.17.
In the case of A3G A15G U26A A45C U66C U72A, the self-cleavage is reported as 0.07.
For A3G A5G U80C, the self-cleavage was 0.62.
Variant A3G A13U A18G A21G U31A U43C has a self-cleavage of 0.1.
A3G A18G G30A G42A A45U C71A A77G gave a self-cleavage of 0.07.
With A3G A28C U31A G52A the self-cleavage was 0.41.
With A3G A18U C59A the self-cleavage was 0.47.
Work on A3G A18U A20G A28G A57G yielded a self-cleavage of 0.41.
Work on A3G A5C A18G G24A A64G yielded a self-cleavage of 0.11.
For A3G A15U U26C U41A U76A, the self-cleavage was 0.15.
For A3G A28G U43A U72C U80C, the self-cleavage was 0.85.
Work on A3G A47G U51A A56U A64U yielded a self-cleavage of 0.2.
A3G A5G A35C U67C U69C gave a self-cleavage of 0.46.
With A3G A5G U26A C34U C40G G52C U72C the self-cleavage was 0.1.
For A3C A15G C38U U60A A64C, the self-cleavage was 0.19.
Variant A3G A5C C37U U41C A65C U67A A75G has a self-cleavage of 0.11.
Work on A3G A18G U54C yielded a self-cleavage of 0.77.
With A3G A15U A21G U25C A56G the self-cleavage was 0.36.
Work on A3G C4U A28G U66G A77G yielded a self-cleavage of 0.64.
For A3G A13G U41A, the self-cleavage was 0.59.
In the case of A3G A18U U26A G33A, the self-cleavage is reported as 0.32.
In the case of A3G A15U A20G A64G U69A A77G, the self-cleavage is reported as 0.26.
Work on A3G A15U U31A U69C yielded a self-cleavage of 0.21.
Variant A3G A13G U26C A45U A57C has a self-cleavage of 0.47.
Variant A3G A18C U25C A56G U80C has a self-cleavage of 0.06.
A3C A21G C29U A57G U72C U74A showed a self-cleavage of 0.28.
A3G A5U C11G A18G A28G gave a self-cleavage of 0.14.
A3G A47G U60C A65G showed a self-cleavage of 0.34.
A3G C11G U26A U67C U72A gave a self-cleavage of 0.05.
In the case of A3C U43A A77G, the self-cleavage is reported as 1.22.
For A3G A13U A45G A75U, the self-cleavage was 1.16.
In the case of A3C G8U G24A A57C G61C, the self-cleavage is reported as 0.06.
With A3G A5G G9A A13U A18G the self-cleavage was 0.69.
Work on A2U U43A U66C U69A yielded a self-cleavage of 0.21.
A3G A13G U25A U54C showed a self-cleavage of 0.1.
A3G A5U G22U A28C U31C A57G U78A gave a self-cleavage of 0.
With A3G A21G U49C U67C the self-cleavage was 0.36.
A3G A56G A57U A64G gave a self-cleavage of 0.19.
A3G A13G U41A U54A C68G G73U A77U showed a self-cleavage of 0.18.
In the case of A3G A21G U31C G33A A45U U51G G52U, the self-cleavage is reported as 0.07.
A3C A20G U51C gave a self-cleavage of 1.08.
In the case of A3G A28G A56G, the self-cleavage is reported as 0.51.
For A3G A21U A75U, the self-cleavage was 0.44.
A3G A45U A56G showed a self-cleavage of 0.13.
In the case of A3G G7U U41C A47G G63C U80C, the self-cleavage is reported as 0.1.
Variant A3G C39A U41C U80C has a self-cleavage of 0.41.
With A3G A18U U26C A35G C68A the self-cleavage was 0.35.
For A3G C11G U43G G70A, the self-cleavage was 0.13.
Work on A3G A35G A64G A75U U78C yielded a self-cleavage of 1.25.
With A3G C12A A13G U51C A56G U60C A65G the self-cleavage was 0.33.
For A3G A13G G55U U60C, the self-cleavage was 0.13.
With A3G C23G U25C the self-cleavage was 0.29.
A3G C12U A13G gave a self-cleavage of 0.81.
Variant A3G A28U U72A has a self-cleavage of 0.82.
A3G C17U A20U U31A A64G U74A showed a self-cleavage of 0.3.
Work on A3G G7U A64G U69C yielded a self-cleavage of 0.08.
In the case of A3G A15C U72A U76C, the self-cleavage is reported as 0.74.
A3G A18U U31C U43C G55U A65G gave a self-cleavage of 0.2.
Work on A3G C23A U41A yielded a self-cleavage of 0.33.
For A3G A20U C38U U80C, the self-cleavage was 0.18.
For A3G A5U A57G, the self-cleavage was 0.92.
For A3G A5U A18G A35U U41A G73A, the self-cleavage was 0.14.
A3G C23U A45U A64U U67A gave a self-cleavage of 0.13.
A3G C12A U43C A75U U76G gave a self-cleavage of 0.29.
In the case of A3G C23A A64G G73U, the self-cleavage is reported as 0.08.
Variant A3C U41C C44U A47G C62A A64G has a self-cleavage of 0.1.
A3C A57U U69A gave a self-cleavage of 0.4.
In the case of A3G C27U A28U A56G U69C, the self-cleavage is reported as 0.43.
With A3G A5G A13G G46U the self-cleavage was 0.1.
Work on A3G A15G A28U U60A U72C yielded a self-cleavage of 0.32.
Work on A3G A13G U49C yielded a self-cleavage of 0.2.
Work on A3G C44A A77U yielded a self-cleavage of 0.31.
For A3C A13G C32U U54C, the self-cleavage was 0.19.
With A3G A18U U67G U69C the self-cleavage was 0.25.
Work on A3G G6A A18G U67C yielded a self-cleavage of 0.22.
A3G A18G U31A C62U A65G U67A U69C gave a self-cleavage of 0.23.
A3G A45U A47U C50A U58A A65G U72C gave a self-cleavage of 0.14.
With A3G A13G G33U U48C A77G the self-cleavage was 0.12.
A3C A20U C23U A35U A47G U72A A77G gave a self-cleavage of 0.12.
For A3G C12G C38G A45U A64G, the self-cleavage was 0.07.
Work on A3G G6A U26C C38U A57G U58C yielded a self-cleavage of 0.06.
In the case of A3C C11G U41A A45G A56G, the self-cleavage is reported as 0.11.
A3C A15G C29U U43C A47U U60A showed a self-cleavage of 0.18.
With A3G C11G C32A U49C the self-cleavage was 0.08.
A3G A35U A45U showed a self-cleavage of 0.32.
A3G A45U A64G showed a self-cleavage of 0.29.
With A3G A13G C23U G42A G63A U67C U80C the self-cleavage was 0.07.
For A3G A13U C29U A45G, the self-cleavage was 0.56.
In the case of A3C C11G C32A U41A, the self-cleavage is reported as 0.33.
Work on A3G C34G U41C G55U yielded a self-cleavage of 0.8.
Work on A3G A20G A21G yielded a self-cleavage of 0.69.
For A3G A18U U80C, the self-cleavage was 0.78.
A3G C12A A57U U66C showed a self-cleavage of 0.21.
A3G A35U C40U U48C A65G U66A gave a self-cleavage of 0.16.
For A3G A20G G30C G53U U74A A75U, the self-cleavage was 0.09.
In the case of A3G A15C A35G U49A G55A A57U, the self-cleavage is reported as 0.8.
A3G A21U C39A A64C A65G U67A U69C gave a self-cleavage of 0.05.
A3C G19A U26C showed a self-cleavage of 0.63.
Work on A3G A45G U72A yielded a self-cleavage of 0.34.
For A3G A20G A28U A75U U78A, the self-cleavage was 0.74.
In the case of A3G A20U A35G, the self-cleavage is reported as 0.88.
A3G A18G G36A C39A U43A gave a self-cleavage of 0.42.
A3G A15G C29U A47G U78A gave a self-cleavage of 0.14.
In the case of A3G A20G A35G A45U U48C U58C U80A, the self-cleavage is reported as 0.25.
Variant A3G G6U U51G A57G U58C has a self-cleavage of 0.45.
For A3G A13G A21C U48C U80A, the self-cleavage was 0.13.
